In one assay the target is Recombinant heterodimeric HCV NS3/NS4A protease (strain 1a) (Hepatitis C virus genotype 1a, UniProt P27958). The experiment in a line: Spectrophotometric assay for HCV protease inhibitory activity (chromogenic ester substrates). The format is biochemical. The settings on record: Table 6; read-out: Ki* range.
What is called Ki is the equilibrium dissociation constant of an inhibitor or competing ligand from its target. Turning to `C#CCCC(NC(=O)[C@@H]1[C@@H]2[C@H](CN1C(=O)[C@@H](NC(=O)NC1(Cc3ccccn3)CCCCC1)C(C)(C)C)C2(C)C)C(=O)C(=O)NCC=C` (stereo partly drawn) [compound 4946], the Ki was < 75 nM.

Turning to `CC(C)(C)[C@H](NC(=O)NC1(Cc2ccccn2)CCCCC1)C(=O)N1C[C@H]2[C@@H]([C@H]1C(=O)NC(CCC(F)(F)F)C(=O)C(N)=O)C2(C)C` (stereo partly drawn) [compound 4947], the Ki is < 75 nM.

For the molecule `CC(C)[C@@H](Cc1nccs1)NC(=O)N[C@H](C(=O)N1C[C@H]2[C@@H]([C@H]1C(=O)NC(CC1CCC1)C(=O)C(N)=O)C2(C)C)C(C)(C)C` (stereo partly drawn) [compound 4948], the Ki was < 75 nM.

On to `CC(C)[C@@H](Cc1nccs1)NC(=O)N[C@H](C(=O)N1C[C@H]2[C@@H]([C@H]1C(=O)NC(CC1CC1)C(=O)C(N)=O)C2(C)C)C(C)(C)C` (stereo partly drawn) [compound 4949], for which the Ki is < 75 nM.

`C=C(c1ccccc1)[C@@H](NC(=O)N[C@H](C(=O)N1C[C@H]2[C@@H]([C@H]1C(=O)NC(CC1CC1)C(=O)C(N)=O)C2(C)C)C(C)(C)C)C(C)C` (stereo partly drawn) [compound 4950]: the Ki was < 75 nM.

Consider `CC(C)(C)[C@H](NC(=O)NC1(Cc2ccccc2)CCSCC1)C(=O)N1C[C@H]2[C@@H]([C@H]1C(=O)NC(CC1CC1)C(=O)C(N)=O)C2(C)C` (stereo partly drawn) [compound 4951], for which the Ki was < 75 nM.

Take `C=CCNC(=O)C(=O)C(CCC(F)(F)F)NC(=O)[C@@H]1[C@@H]2[C@H](CN1C(=O)[C@@H](NC(=O)NC1(Cc3nccs3)CCCCC1)C(C)(C)C)C2(C)C` (stereo partly drawn) [compound 4952]: the Ki is < 75 nM.

Consider `CC(C)[C@@H](Cc1ccccc1)NC(=O)N[C@H](C(=O)N1C[C@H]2[C@@H]([C@H]1C(=O)NC(CC1CC1)C(=O)C(N)=O)C2(C)C)C(C)(C)C` (stereo partly drawn) [compound 4953], for which the Ki was < 75 nM.

For `CC(c1ccccc1)C(C)(C)NC(=O)N[C@H](C(=O)N1C[C@H]2[C@@H]([C@H]1C(=O)NC(CC1CC1)C(=O)C(N)=O)C2(C)C)C(C)(C)C` (stereo partly drawn) [compound 4954], the Ki was < 75 nM.

For `CC1(C)[C@@H]2[C@@H](C(=O)NC(CC3CC3)C(=O)C(N)=O)N(C(=O)[C@@H](NC(=O)NC3(Cc4ccncc4)CCCCC3)C3CCCCC3)C[C@@H]21` (stereo partly drawn) [compound 4955], the Ki was < 75 nM.

On to `CC1CCCCC1(Cc1ccccc1)NC(=O)N[C@H](C(=O)N1C[C@H]2[C@@H]([C@H]1C(=O)NC(CC1CC1)C(=O)C(N)=O)C2(C)C)C(C)(C)C` (stereo partly drawn) [compound 4956], for which the Ki is < 75 nM.

`CC(C)(C)[C@H](NC(=O)NC1(Cc2ccccc2)CC2CCC1CC2)C(=O)N1C[C@H]2[C@@H]([C@H]1C(=O)NC(CC1CC1)C(=O)C(N)=O)C2(C)C` (stereo partly drawn) [compound 4957]: the Ki was < 75 nM.

As for `CC1(C)[C@@H]2[C@@H](C(=O)NC(CC3CC3)C(=O)C(N)=O)N(C(=O)[C@@H](NC(=O)NC3(Cc4cccc(O)c4)CCCCC3)C3Cc4ccccc4C3)C[C@@H]21` (stereo partly drawn) [compound 4958], the Ki was < 75 nM.

As for `C=CCNC(=O)C(=O)C(CCC)NC(=O)[C@@H]1[C@@H]2[C@H](CN1C(=O)[C@@H](NC(=O)NC1(Cc3nccs3)CCCCC1)C(C)(C)C)C2(C)C` (stereo partly drawn) [compound 4959], the Ki was < 75 nM.

Regarding `CC1CCCC(Cc2ccccc2)(NC(=O)N[C@H](C(=O)N2C[C@H]3[C@@H]([C@H]2C(=O)NC(CC2CC2)C(=O)C(N)=O)C3(C)C)C(C)(C)C)C1` (stereo partly drawn) [compound 4960], the Ki is < 75 nM.

With `CCCCC(NC(=O)[C@@H]1[C@@H]2[C@H](CN1C(=O)[C@@H](NC(=O)NC1(Cc3ccccn3)CCCCC1)C(C)(C)C)C2(C)C)C(=O)C(N)=O` (stereo partly drawn) [compound 4962], the Ki lay within 76 to 250 nM.

For `CC(C)(C)[C@H](NC(=O)N[C@H](Cc1ccccc1)C(C)(C)C)C(=O)N1C[C@H]2[C@@H]([C@H]1C(=O)NC(CC1CC1)C(=O)C(N)=O)C2(C)C` (stereo partly drawn) [compound 4964], the Ki was in the range of 76 to 250 nM.

In the case of `CC(C)(C)[C@H](NC(=O)NC1(Cc2ccccn2)CCCCC1)C(=O)N1C[C@H]2[C@@H]([C@H]1C(=O)NC(CC1CC1)C(=O)C(N)=O)C21CC1` (stereo partly drawn) [compound 4965], the Ki was in the range of 76 to 250 nM.

As for `CCCC(NC(=O)[C@@H]1[C@@H]2[C@H](CN1C(=O)[C@@H](NC(=O)NC1(Cc3ccccn3)CCCCC1)C(C)(C)C)C2(C)C)C(=O)C(N)=O` (stereo partly drawn) [compound 4966], the Ki is 76 to 250 nM.

`CC(C)(C)[C@H](NC(=O)NC1(Cc2ccc(OCc3ccccc3)c(OCc3ccccc3)c2)CCCCC1)C(=O)N1C[C@H]2[C@@H]([C@H]1C(=O)NC(CC1CC1)C(=O)C(N)=O)C2(C)C` (stereo partly drawn) [compound 4967]: the Ki fell in the range of 76 to 250 nM.

For `C=CCNC(=O)C(=O)C(CC1CC1)NC(=O)[C@@H]1[C@@H]2[C@H](CN1C(=O)[C@@H](NC(=O)NC1(Cc3nccs3)CCCCC1)C(C)(C)C)C2(C)C` (stereo partly drawn) [compound 4968], the Ki lay within 76 to 250 nM.

On to `C=CCNC(=O)C(=O)C(CCC)NC(=O)[C@@H]1[C@@H]2[C@H](CN1C(=O)[C@@H](NC(=O)N[C@H](Cc1ccccc1)C(C)(C)C)C(C)(C)C)C2(C)C` (stereo partly drawn) [compound 4969], for which the Ki lay within 76 to 250 nM.

With `CC(C)(C)[C@H](NC(=O)NC1(Cc2cccc(OCc3ccccc3)c2)CCCCC1)C(=O)N1C[C@H]2[C@@H]([C@H]1C(=O)NC(CC1CC1)C(=O)C(N)=O)C21CC1` (stereo partly drawn) [compound 4970], the Ki was 76 to 250 nM.

For the molecule `C#CCCC(NC(=O)[C@@H]1[C@H]2CC(C)(C)O[C@H]2CN1C(=O)[C@@H](NC(=O)NC1(Cc2ccccc2)CCCCC1)C(C)(C)C)C(=O)C(=O)NCC=C` (stereo partly drawn) [compound 4971], the Ki was in the range of 76 to 250 nM.

Regarding `C=CCNC(=O)C(=O)C(CCCC)NC(=O)[C@@H]1[C@@H]2[C@H](CN1C(=O)[C@@H](NC(=O)N[C@H](Cc1nccs1)C(C)C)C(C)(C)C)C2(C)C` (stereo partly drawn) [compound 4972], the Ki was 76 to 250 nM.

`C=CCNC(=O)C(=O)C(CCC)NC(=O)[C@@H]1[C@@H]2[C@H](CN1C(=O)[C@@H](NC(=O)N[C@H](Cc1nccs1)C(C)C)C(C)(C)C)C2(C)C` (stereo partly drawn) [compound 4973]: the Ki is 76 to 250 nM.

As for `CC(=O)N1CCCC(Cc2ccccc2)(NC(=O)N[C@H](C(=O)N2C[C@H]3[C@@H]([C@H]2C(=O)NC(CC2CCC2)C(=O)C(N)=O)C3(C)C)C(C)(C)C)C1` (stereo partly drawn) [compound 4975], the Ki was in the range of 76 to 250 nM.

On to `CC1(C)C[C@H]2[C@H](CN(C(=O)[C@@H](NC(=O)NC3(Cc4ccc(O)cc4)CCCCC3)C3CCCCC3)[C@@H]2C(=O)NC(CC2CC2)C(=O)C(N)=O)O1` (stereo partly drawn) [compound 4976], for which the Ki lay within 76 to 250 nM.

Consider `CC1(C)[C@@H]2[C@@H](C(=O)NC(CC3CC3)C(=O)C(N)=O)N(C(=O)[C@@H](NC(=O)NC3(Cc4cccc(OCc5ccccc5)c4)CCCCC3)C3CCCCC3)C[C@@H]21` (stereo partly drawn) [compound 4977], for which the Ki lay within 76 to 250 nM.

`CC(C)(C)OC(=O)N1CCCC(Cc2ccccc2)(NC(=O)N[C@H](C(=O)N2C[C@H]3[C@@H]([C@H]2C(=O)NC(CC2CC2)C(=O)C(N)=O)C3(C)C)C(C)(C)C)C1` (stereo partly drawn) [compound 4978]: the Ki was in the range of 76 to 250 nM.

Consider `CC(=O)N1CCCC(Cc2ccccc2)(NC(=O)N[C@H](C(=O)N2C[C@H]3[C@@H]([C@H]2C(=O)NC(CC2CC2)C(=O)C(N)=O)C3(C)C)C(C)(C)C)C1` (stereo partly drawn) [compound 4979], for which the Ki fell in the range of 76 to 250 nM.

Consider `CC(C)(C)[C@H](NC(=O)NC1(Cc2ccccn2)CCCN(S(C)(=O)=O)C1)C(=O)N1C[C@H]2[C@@H]([C@H]1C(=O)NC(CC1CC1)C(=O)C(N)=O)C2(C)C` (stereo partly drawn) [compound 4980], for which the Ki was 76 to 250 nM.

`COC1CCC(Cc2ccccc2)(NC(=O)N[C@H](C(=O)N2C[C@H]3[C@@H]([C@H]2C(=O)NC(CC2CC2)C(=O)C(N)=O)C3(C)C)C(C)(C)C)CC1` (stereo partly drawn) [compound 4981]: the Ki fell in the range of 76 to 250 nM.

Regarding `CC(C)(C)[C@H](NC(=O)NC1(Cc2cccc(OCc3ccccc3)c2)CCCCC1)C(=O)N1C[C@H]2[C@@H]([C@H]1C(=O)NC(CC1CC1)C(=O)C(N)=O)C21CCCC1` (stereo partly drawn) [compound 4982], the inhibition constant Ki is 76 to 250 nM.

Take `CC1(C)[C@@H]2[C@@H](C(=O)NC(CC3CC3)C(=O)C(N)=O)N(C(=O)[C@@H](NC(=O)NC3(Cc4cccc(OCc5ccccc5)c4)CCCCC3)C3Cc4ccccc4C3)C[C@@H]21` (stereo partly drawn) [compound 4983]: the Ki lay within 76 to 250 nM.

Staying with this assay, now noted: Table 8; read-out: Ki*.
With `CC(C)[C@H](NC(=O)N[C@H](C(=O)N1C[C@H]2[C@@H]([C@H]1C(=O)NC(CC1CC1)C(=O)C(N)=O)C2(C)C)C(C)(C)C)C(=O)c1ccccc1` (stereo partly drawn) [drawing 1470], the Ki is 5 nM.

`CC(C)(C)[C@H](NC(=O)N[C@H](C(=O)C1CC1)C1CCCCC1)C(=O)N1C[C@H]2[C@@H]([C@H]1C(=O)NC(CC1CC1)C(=O)C(N)=O)C2(C)C` (stereo partly drawn) [drawing 1471]: the Ki came to 8 nM.

Regarding `CC(C)[C@H](NC(=O)N[C@H](C(=O)N1C[C@H]2[C@@H]([C@H]1C(=O)NC(CC1CCC1)C(=O)C(N)=O)C2(C)C)C(C)(C)C)C(=O)C1CC1` (stereo partly drawn) [drawing 1472], the Ki worked out at 15 nM.

Take `CC(C)[C@H](NC(=O)N[C@H](C(=O)N1C[C@H]2[C@@H]([C@H]1C(=O)NC(CC1CC1)C(=O)C(N)=O)C2(C)C)C(C)(C)C)C(=O)OC(C)(C)C` (stereo partly drawn) [drawing 1474]: the Ki came to 22 nM.

On to `C=CCNC(=O)C(=O)C(CCC)NC(=O)[C@@H]1[C@@H]2[C@H](CN1C(=O)[C@@H](NC(=O)N[C@H](C(=O)OCc1ccccc1)C1CCCC1)C(C)(C)C)C2(C)C` (stereo partly drawn) [drawing 1475], for which the Ki was 30 nM.

In the case of `CC1(C)[C@@H]2[C@@H](C(=O)NC(CC3CC3)C(=O)C(N)=O)N(C(=O)[C@@H](NC(=O)NC3(Cc4cccnc4)CCCCC3)C3CCCCC3)C[C@@H]21` (stereo partly drawn) [drawing 1477], the Ki is 14 nM.

For the molecule `CC(C)(C)[C@H](NC(=O)NC1(Cc2nccs2)CCCCC1)C(=O)N1C[C@H]2[C@@H]([C@H]1C(=O)NC(CC1CCC1)C(=O)C(N)=O)C2(C)C` (stereo partly drawn) [drawing 1478], the Ki is 13 nM.

In the case of `CC(C)[C@H](NC(=O)N[C@H](C(=O)N1C[C@H]2[C@@H]([C@H]1C(=O)NC(CC1CC1)C(=O)C(N)=O)C2(C)C)C(C)(C)C)C(=O)C1CC1` (stereo partly drawn) [drawing 1479], the Ki is 7 nM.

With `C#CCCC(NC(=O)[C@@H]1[C@@H]2[C@H](CN1C(=O)[C@@H](NC(=O)N[C@H](C(=O)C1CC1)C1CCCCC1)C(C)(C)C)C2(C)C)C(=O)C(=O)NCC=C` (stereo partly drawn) [drawing 1480], the Ki is 9 nM.

With `C#CCCC(NC(=O)[C@@H]1[C@@H]2[C@H](CN1C(=O)[C@@H](NC(=O)N[C@H](C(=O)c1ccccc1)C(C)C)C(C)(C)C)C2(C)C)C(=O)C(=O)NCC=C` (stereo partly drawn) [drawing 1482], the Ki amounted to 13 nM.

Values taken from patent publication US7423058B2, “Inhibitors of hepatitis C virus NS3 protease” (Schering Corporation, priority 2004, dated 2008).
